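Cells were grown in 96-well plates and exposed to each compound for 48 hours at five concentrations; endpoints were interpolated linearly between bracketing concentrations, or set to the highest concentration if not reached. The concentration for 50% growth inhibition is given as GI50. At the TGI there is no net growth.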

Usually TGI stands for the concentration giving total growth inhibition. A low value points to greater sensitivity of the cells. For orientation: GI50 means the concentration at which growth is held to half of that of the control.

For the test, the system named is NCI-H322M lung. The experiment in a line: DTP human tumour cell line panel, 48 h.
As to `CC(C)(C)OC(=O)CN1CCNCCN(CC(=O)OC(C)(C)C)CCNCC1`, the TGI is above 100 µM. As to `C=C1CC(Cn2ccc(=O)[nH]c2=O)(c2ccc(Cl)cc2)OC1=O` (configuration not stated), the TGI came to 30.9 µM. The same measure, in the same setting: as for `C=CCN(CCNS(=O)(=O)c1ccc(C)cc1)S(=O)(=O)c1ccc(C)cc1`, the figure is above 100 µM; as for `O=[N+]([O-])C=C(c1ccc(Cl)cc1)c1ccc(Cl)cc1`, 30.7 µM; as for `CC(=O)Oc1c(N2CCCCC2)c(C(=O)c2ccccc2)c(O)c2ccn(N(C)C)c12`, 26.6 µM. Same read-out and setting: then `Nc1[nH]nc2nc3ccccc3nc12`, with above 100 µM. For the compound `CCCCCCCCCCCCCCCCCCn1cc[n+](C)c1`, the GI50 was 1.39 µM and the TGI was determined as 2.91 µM. On the same counts, the results for `Cc1ccc(/C=N/Nc2nc(Nc3ccccc3)nc(-n3nc(C)cc3C)n2)cc1` are 4.26 µM and 64.9 µM. On the same counts, the results for `Cc1cc2c(cc1Cl)S/C(=C/C(=O)O)C(Nc1ccc3ncsc3c1)=NS2(=O)=O` are 21.4 µM and above 52.4 µM. `CN(CCNC(=O)c1cn(C)c2c1ccc1cc(Cl)c(Cl)cc12)CCNC(=O)c1cn(C)c2c1ccc1cc(Cl)c(Cl)cc12` came in with a TGI of 3.7 µM. Still for that read-out and setting: as for `CCc1cccc(C)c1NC(=O)C(=O)CC(=O)c1ccc(Cl)s1`, the figure is above 100 µM; as for `Cc1cccc(C)c1NC(=O)C1=NC(=S)NC(c2ccccc2)C1c1nc2ccccc2s1` (configuration not stated), above 100 µM.

The compound `O=C(Nc1cccc([N+](=O)[O-])c1)c1n[nH]n(-c2cccc([N+](=O)[O-])c2)c1=O` registered a TGI above 100 µM.

As to `O=C1/C=C(/c2ccc(O)cc2)[C@@H](O)Cc2ccc(O)cc2O1`, the TGI was above 100 µM. On to `Cc1cc(S(=O)(=O)Nc2nnc3cnc4ccccc4n23)c(S)cc1Cl`, for which the TGI is above 100 µM. As to `CCCCCCCCCCCCCC[N+](C)(C)CCCCCCCCCCCCCC`, the GI50 was 12.6 µM and the TGI is 75.6 µM. The compound `c1ccc(C2OC3(CCC[C@H]4C[C@H]43)O[C@H]2c2ccccc2)cc1` (some centres not stated) yielded a TGI above 100 µM. `COC(=O)c1c(O)ccc2[nH]c3c(O)c4ccccc4cc3c12` came in with a TGI of 57.5 µM. Take `COc1cc(/C=C/C(=O)/C=C/c2ccc(-n3ccnc3C)cc2)ccc1O`: the GI50 is 8.8 µM and the TGI was above 100 µM. As to `CCOP(=O)(OCC)C1CCCOC1=O` (configuration not stated), the total growth inhibition concentration (TGI) was above 100 µM. As to `CCOC(=O)c1nc2ccc(C(F)(F)F)cc2nc1Nc1ccc(Cl)c(Cl)c1`, the TGI was above 100 µM. The same measure, in the same setting: then `O=C1CC(c2ccccc2)=Nc2ccccc2N1`, with above 100 µM.

In turn, `O=C(CCCN1CCC(O)(c2ccc(Cl)cc2)CC1)c1ccc(F)cc1` returned a TGI above 100 µM. The same measure, in the same setting: then `CCOC(=O)Oc1cc2c(c(OC)c1OC)-c1ccc(OC)c(=O)cc1C(NC(C)=O)CC2` (configuration not stated), with 24 µM; and `O=C(CCC=C(S(=O)(=O)c1ccccc1)S(=O)(=O)c1ccccc1)c1ccccc1`, with 25.6 µM. As for `O=c1[nH]c2ccccc2nc1/C=C(\O)c1ccccc1O`, the TGI was above 100 µM. On the same count and under the same terms, then `O=C(/C=C(\S/C=C(/c1ccccc1)N1CCn2c(C(=O)c3ccccc3)c(C(=O)c3ccccc3)c(C(=O)c3ccccc3)c21)C(=O)c1ccccc1)c1ccccc1`, with above 10 µM. In the case of `O=C(Nc1ccccc1)Nc1ccc2cc3ccc(NC(=O)Nc4ccccc4)cc3nc2c1`, the GI50 was 1.72 µM and the TGI was 3.7 µM. `CN(C)C(=N/O)/C(=N\O)N(C)C` gave a TGI above 100 µM. For `Cc1csc2[n+]1-c1ccccc1N(C(=O)Nc1ccccc1)C(C)C2` (configuration not stated), the GI50 was 64.7 µM and the TGI is above 100 µM. Turning to `CCOC(=O)C(Cc1ccc(OC(=O)OC(C)(C)C)cc1)NC(=O)OC(C)(C)C` (configuration not stated), the concentration for total growth inhibition (TGI) was above 100 µM. In the case of `O=C1N2Cc3c4ccc5c3CN3C(=O)N6Cc7c(ccc(c7CN1C6(c1ccccc1)C23c1ccccc1)OCCOCCNCCOCCO4)OCCOCCNCCOCCO5` (configuration not stated), the TGI is above 100 µM.

`COC(=O)c1c(C#N)c(N)nc2c1CCC2` returned a TGI above 100 µM. Same read-out and setting: then `NC(CSSCC(N)=NCC12CC3CC(CC(C3)C1)C2)=NCC12CC3CC(CC(C3)C1)C2`, with 28.6 µM; and `Cc1cccc(C2SCc3nc4ccccc4n32)c1` (configuration not stated), with above 100 µM.

(Values after PubChem BioAssay (NCI).)
